Experimental data from patent publication US12370143B2, “Compound or salt thereof and lipid particles” (FUJIFILM Corporation, priority 2018, dated 2025).
At least one structure is not confirmed: it was looked up by name or label, or the drawing left a doubt.

Assays:
Assay type in all cases: physicochemical
[1] = Nucleic acid encapsulation rate of nucleic acid lipid particles (FVII-siRNA)
Experimental: (§1) A 3 mol/L aqueous sodium acetate solution (30 μL) and 9 μL of glycogen were added to 60 μL of the lipid particles retaining nucleic acids, and then 1.5 mL of ethanol was added thereto such that only the nucleic acids were precipitated while the lipid was dissolved. Then, the supernatant was removed by centrifugation. After the precipitates were air-dried for 15 minutes or longer, water was added thereto such that the precipitates were redissolved, and the concentration thereof was measured using Nanodrop NF1000 (Thermo Fisher Scientific), thereby quantifying the total nucleic acid concentration.
(§2) The nucleic acid concentration was quantified using a Quant-iT RiboGreen RNA Assay Kit (Thermo Fisher Scientific) according to the protocol. First, a 20×TE buffer included in the above kit was diluted with water, thereby obtaining a 1×TE buffer. TE represents Tris/EDTA (ethylenediaminetetraacetic acid). In order to quantify only the nucleic acid in the outer water phase, the dispersion liquid of lipid particles retaining nucleic acids was diluted 10,000× with the 1×TE buffer.
(§3) The 10,000× diluted dispersion liquid of lipid particles (100 μL) was put in a 96-well plate, then 100 μL of a RiboGreen reagent (reagent included in the Quanti-iT Ribogreen RNA Assay Kit described above) diluted 2000× with the 1×TE buffer was added to a sample, and fluorescence (excitation wavelength: 485 nm, fluorescence wavelength: 535 nm) was measured using a plate reader Infinit EF200 (TECAN), thereby quantifying the nucleic acid concentration in the outer water phase.
(§4) By using the total nucleic acid concentration obtained through the above steps and the quantified nucleic acid concentration in the outer water phase, the nucleic acid encapsulation rate of the nucleic acid lipid particles was calculated according to the following Equation. Nucleic acid encapsulation rate (%)=(total nucleic acid concentration−nucleic acid concentration in outer water phase)/total nucleic acid concentration×100 The results are shown in Table 2.
(§5) The Factor VII (FVII) protein was measured according to the method described in Nature Biotechnology (2010) 28, 172-176. C57BL6/J mice were randomly grouped (n=3). A dispersion liquid of nucleic acid lipid particles was prepared by the same method as that in <Preparation of nucleic acid lipid particles>, except that FVII-siRNA having the sequence described in Molecular Therapy (2009) 17, p. 878 was used instead of Luc-siRNA. The dispersion liquid was administered to the caudal vein of the mice at a dosage of 0.1 mg/kg. For comparison, PBS at the same volume was administered to the caudal vein of the mice. Twenty four hours after the administration, blood was collected from the caudal vena cava, thereby obtaining plasma. The amount of FVII protein was quantified using the obtained plasma and a Biophen FVII assay kit (Aniara).

[2] = Particle size of nucleic acid lipid particles (Luc2-siRNA); details: compound/DSPC/cholesterol/DMG-PEG2000 50/10/38.5/1.5
Experimental: By using the dispersion liquid of lipid particles as it was, the particle size of the lipid particles was measured using a zeta potential/particle size measurement system ELS-Z2 (Otsuka Electronics Co., Ltd.).
(§6) The compounds described in Table 2, L-α-distearoylphosphatidylcholine (trade name: COATSOME® MC-8080; NOF corporation), cholesterol (trade name: Choesterol HP; NIPPON FINE CHEMICAL CO., LTD.), and 1,2-dimyristoyl-rac-glycero-3-(methylpolyoxyethylene 2000) (hereinafter, called DMG-PEG2000) (trade name: SUNBRIGHT® GM-020; NOF corporation) were dissolved in ethanol at a molar ratio of 50/10/38.5/1.5 such that the total lipid concentration became 20 mmol/L, thereby obtaining an oil phase.
(§7) An aqueous nucleic acid solution obtained by dissolving 5 mg of Luc2-siRNA having the sequence described in Biomacromolecules (2013) 14, p. 3905 in 1 mL of sterile water was diluted with 10 mmol/L acetate buffer having a pH 4 such that the nucleic acid concentration became 19.7 μmol/L, thereby obtaining a water phase. Then, the water phase and the oil phase were mixed together by a micromixer (see JP5288254B) using a syringe pump such that the volume ratio of water phase:oil phase became 3:1 (final ratio of siRNA/lipid=339 (mol/mol)), and the mixed solution was diluted 2× with PBS, thereby obtaining a dispersion liquid of nucleic acid lipid particles. The dispersion liquid was dialyzed (Slide-A-Lyzer G2, MWCO: 10 kD, Thermo Fisher Scientific) using a phosphate buffered saline such that ethanol was removed, thereby obtaining nucleic acid lipid particles.
(§8) The particle size of the nucleic acid lipid particles was measured by the same method as that in <Preparation of lipid particles>.

[3] = Particle size of nucleic acid lipid particles (FVII-siRNA)
Experimental: as §6, §7, §8, §5

[4] = Encapsulation rate of siRNA in nucleic acid lipid particles (Luc2-siRNA); details: compound/DSPC/cholesterol/DMG-PEG2000 50/10/38.5/1.5
Experimental: as §6, §7, §1, §2, §3, §4

SMILES | Nucleic acid encapsulation rate [1] [%] | Particle size (nm) [2] [nm] | Particle size (nm) [3] [nm] | Nucleic acid encapsulation rate [4] [%]
CCCCCCCC/C=C\CCCCCCCC(=O)OCCCCCCC(CCCCCCOC(=O)CCCCCCC/C=C\CCCCCCCC)OC(=O)OCCN(CCN(CC)CC)C(C)C [Example 48, 7-(((2-((2-(Diethylamino)ethyl)(isopropyl)amino)ethoxy)carbonyl)oxy)tridecane-1,13-diyldioleate] | 84 | 73.9 | 70.1 | 81
CCCCCC(CCCCC)C(=O)OCCCCCCC(CCCCCCOC(=O)C(CCCCC)CCCCC)OC(=O)OCCN(CC)CCN(CC)CC [Example 60, 7-(((2-((2-(Diethylamino)ethyl)(ethyl)amino)ethoxy)carbonyl)oxy)tridecane-1,13-diylbis(2-pentylheptanoate)] |  | 83.4 |  | 84
CCCCCCCCC(CCCCCC)C(=O)OCCCCCCC(CCCCCCOC(=O)C(CCCCCC)CCCCCCCC)OC(=O)OCCN(CCN(CC)CC)C(C)C (centres unmarked) [Example 62, 7-(((2-((2-(Diethylamino)ethyl)(isopropyl)amino)ethoxy)carbonyl)oxy)tridecane-1,13-diylbis(2-hexyldecanoate)] | 85 | 47.1 | 72.2 | 76
CCN(CC)CCN(CC)CCOC(=O)OC(CCCCCCOC(=O)C(CCC(C)CC(C)(C)C)C(C)CC(C)(C)C)CCCCCCOC(=O)C(CCC(C)CC(C)(C)C)C(C)CC(C)(C)C (centres unmarked) [Example 59, 7-(((2-((2-(Diethylamino)ethyl)(ethyl)amino)ethoxy)carbonyl)oxy)tridecane-1,13-diylbis(2-(4,4-dimethylpentan-2-yl)-5,7,7-trimethyloctanoate)] | 79 | 80.6 | 72.9 | 77
CCCCCCCC/C=C\CCCCCCCC(=O)OCCCCCCC(CCCCCCOC(=O)CCCCCCC/C=C\CCCCCCCC)OC(=O)OCCN(CC)CCN(CCC)CCC [Example 54, 7-(((2-((2-(Dipropylamino)ethyl)(ethyl)amino)ethoxy)carbonyl)oxy)tridecane-1,13-diyldioleate] |  | 88.5 |  | 82
CCCCCCCC/C=C\CCCCCCCC(=O)OCCCCCCC(CCCCCCOC(=O)CCCCCCC/C=C\CCCCCCCC)OC(=O)OCCN(CC)CCN(CC)CC [Example 41, 7-(((2-((2-(diethylamino)ethyl)(ethyl)amino)ethoxy)carbonyl)oxy)tridecane-1,13-diyldioleate] | 74 | 69.5 | 74.2 | 77
CCCCCCCC/C=C\CCCCCCCC(=O)OCCCCCCC(CCCCCCOC(=O)CCCCCCC/C=C\CCCCCCCC)OC(=O)OCCN(CCN(CC)CC)Cc1ccccc1 [Example 55, 7-(((2-(Benzyl(2-(diethylamino)ethyl)amino)ethoxy)carbonyl)oxy)tridecane-1,13-diyldioleate] |  | 70.5 |  | 85
CCCCCCCCCC(CCCCCCC)C(=O)OCCCCCCC(CCCCCCOC(=O)C(CCCCCCC)CCCCCCCCC)OC(=O)OCCN(CC)CCN(CC)CC (centres unmarked) [Example 58, 7-(((2-((2-(Diethylamino)ethyl)(ethyl)amino)ethoxy)carbonyl)oxy)tridecane-1,13-diylbis(2-heptylundecanoate)] | 82 | 81.5 | 78.6 | 77
CCCCCCCCC(CCCCCC)C(=O)OCCCCCCC(CCCCCCOC(=O)C(CCCCCC)CCCCCCCC)OC(=O)OCCN(CC)CCN(CC)CC (centres unmarked) [Example 56, 7-(((2-((2-(Diethylamino)ethyl)(ethyl)amino)ethoxy)carbonyl)oxy)tridecane-1,13-diylbis(2-hexyldecanoate)] | 79 | 70.8 | 72.5 | 83
CCCCCCC(CCCCCC)CC(=O)OCCCCCCC(CCCCCCOC(=O)CC(CCCCCC)CCCCCC)OC(=O)OCCN(CC)CCN(CC)CC [Example 67, 7-(((2-((2-(Diethylamino)ethyl)(ethyl)amino)ethoxy)carbonyl)oxy)tridecane-1,13-diylbis(3-hexylnonanoate)] | 86 | 69.4 | 82.2 | 70
CCCCCCCC(CCCCCCC)C(=O)OCCCCCCC(CCCCCCOC(=O)C(CCCCCCC)CCCCCCC)OC(=O)OCCN(CC)CCN(CC)CC [Example 76, 7-(((2-((2-(Diethylamino)ethyl)(ethyl)amino)ethoxy)carbonyl)oxy)tridecane-1,13-diylbis(2-heptylnonanoate)] | 80 | 69.7 | 73.4 | 76
